# Assay results from the supplement of paper PMC8728848.
# Some of the results follow.
# B1: OVGAL11 (Ovis aries), AAF64320 (protein)
# chain: MDSLPNPYLQSVSLTVCYMVKIKANLLSAFGKNPELQVDFGTGTGQGGNIPFRFWYCDGMVVMNTFTDGSWQKEEKVLTDAFVPGQPFELQFLVLEKEYQVFVKNKPICQFAHRLPLQSVKMLDVRGDIVLTSVDTL
# Assays:
# Test in all cases: glycan array binding signal (z-score within array); higher = stronger binding
# Conditions in all cases: glycan notation: IUPAC condensed, linker removed
# [1] = molecular target: Gal(b1-4)GlcNAc(b1-3)Gal(b1-4)GlcNAc(b1-2)[Gal(b1-4)GlcNAc(b1-3)Gal(b1-4)GlcNAc(b1-6)]Man(a1-6)[Gal(b1-4)GlcNAc(b1-3)Gal(b1-4)GlcNAc(b1-2)Man(a1-3)]Man(b1-4)GlcNAc(b1-4)[Fuc(a1-6)]GlcNAc
# Summary of the method: (§1)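 The binding signal is a Z-score computed within each array. Data were drawn from 3228 arrays in the Consortium for Functional Glycomics database, restricted to those with a known protein sequence. Scores were averaged over arrays of the same protein sequence at different concentrations or buffers, and over linkers, and negative values can be taken as non-binding.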
# [2] = molecular target: Gal(b1-4)GlcNAc(b1-3)Gal(b1-4)GlcNAc(b1-3)Gal(b1-4)GlcNAc
# Summary of the method: as §1
# [3] = molecular target: Gal(b1-4)GlcNAc(b1-3)Gal(b1-4)GlcNAc(b1-3)Gal(b1-4)GlcNAc(b1-2)Man(a1-3)[Gal(b1-4)GlcNAc(b1-3)Gal(b1-4)GlcNAc(b1-3)Gal(b1-4)GlcNAc(b1-2)Man(a1-6)]Man(b1-4)GlcNAc(b1-4)GlcNAc
# Summary of the method: as §1
# [4] = molecular target: Gal(b1-4)GlcNAc(b1-3)Gal(b1-4)GlcNAc(b1-3)Gal(b1-4)GlcNAc(b1-2)Man(a1-3)[Gal(b1-4)GlcNAc(b1-3)Gal(b1-4)GlcNAc(b1-3)Gal(b1-4)GlcNAc(b1-2)Man(a1-6)]Man(b1-4)GlcNAc(b1-4)[Fuc(a1-6)]GlcNAc
# Summary of the method: as §1
# [5] = molecular target: Gal(b1-4)GlcNAc(b1-3)Gal(b1-4)GlcNAc(b1-3)Gal(b1-4)GlcNAc(b1-2)[Gal(b1-4)GlcNAc(b1-3)Gal(b1-4)GlcNAc(b1-3)Gal(b1-4)GlcNAc(b1-6)]Man(a1-6)[Gal(b1-4)GlcNAc(b1-3)Gal(b1-4)GlcNAc(b1-3)Gal(b1-4)GlcNAc(b1-2)Man(a1-3)]Man(b1-4)GlcNAc(b1-4)[Fuc(a1-6)]GlcNAc
# Summary of the method: as §1
# [6] = molecular target: Gal(b1-4)GlcNAc(b1-3)Gal(b1-4)GlcNAc(b1-3)Gal(b1-4)GlcNAc(b1-3)Gal(b1-4)GlcNAc(b1-2)Man(a1-3)[Gal(b1-4)GlcNAc(b1-3)Gal(b1-4)GlcNAc(b1-3)Gal(b1-4)GlcNAc(b1-3)Gal(b1-4)GlcNAc(b1-2)Man(a1-6)]Man(b1-4)GlcNAc(b1-4)GlcNAc
# Summary of the method: as §1
# [7] = molecular target: Gal(b1-4)GlcNAc(b1-3)Gal(b1-4)GlcNAc(b1-3)Gal(b1-4)GlcNAc(b1-3)Gal(b1-4)GlcNAc(b1-2)Man(a1-3)[Gal(b1-4)GlcNAc(b1-3)Gal(b1-4)GlcNAc(b1-3)Gal(b1-4)GlcNAc(b1-3)Gal(b1-4)GlcNAc(b1-2)Man(a1-6)]Man(b1-4)GlcNAc(b1-4)[Fuc(a1-6)]GlcNAc
# Summary of the method: as §1
# [8] = molecular target: Gal(b1-4)GlcNAc(b1-3)Gal(b1-4)GlcNAc(b1-3)Gal(b1-4)GlcNAc(b1-3)Gal(b1-4)GlcNAc(b1-2)[Gal(b1-4)GlcNAc(b1-3)Gal(b1-4)GlcNAc(b1-3)Gal(b1-4)GlcNAc(b1-3)Gal(b1-4)GlcNAc(b1-6)]Man(a1-6)[Gal(b1-4)GlcNAc(b1-3)Gal(b1-4)GlcNAc(b1-3)Gal(b1-4)GlcNAc(b1-3)Gal(b1-4)GlcNAc(b1-2)Man(a1-3)]Man(b1-4)GlcNAc(b1-4)[Fuc(a1-6)]GlcNAc
# Summary of the method: as §1
# [9] = molecular target: Gal(b1-4)GlcNAc(b1-3)Gal(b1-4)GlcNAc(b1-3)Gal(b1-4)GlcNAc(b1-3)Gal(b1-4)GlcNAc(b1-3)Gal(b1-4)GlcNAc(b1-2)Man(a1-3)[Gal(b1-4)GlcNAc(b1-3)Gal(b1-4)GlcNAc(b1-3)Gal(b1-4)GlcNAc(b1-3)Gal(b1-4)GlcNAc(b1-3)Gal(b1-4)GlcNAc(b1-2)Man(a1-6)]Man(b1-4)GlcNAc(b1-4)GlcNAc
# Summary of the method: as §1
# [10] = molecular target: Gal(b1-4)GlcNAc(b1-3)Gal(b1-4)GlcNAc(b1-3)Gal(b1-4)GlcNAc(b1-3)Gal(b1-4)GlcNAc(b1-3)Gal(b1-4)GlcNAc(b1-2)Man(a1-3)[Gal(b1-4)GlcNAc(b1-3)Gal(b1-4)GlcNAc(b1-3)Gal(b1-4)GlcNAc(b1-3)Gal(b1-4)GlcNAc(b1-3)Gal(b1-4)GlcNAc(b1-2)Man(a1-6)]Man(b1-4)GlcNAc(b1-4)[Fuc(a1-6)]GlcNAc
# Summary of the method: as §1
# [11] = molecular target: Gal(b1-4)GlcNAc(b1-3)Gal(b1-4)GlcNAc(b1-3)Gal(b1-4)GlcNAc(b1-3)Gal(b1-4)GlcNAc(b1-3)Gal(b1-4)GlcNAc(b1-2)[Gal(b1-4)GlcNAc(b1-3)Gal(b1-4)GlcNAc(b1-3)Gal(b1-4)GlcNAc(b1-3)Gal(b1-4)GlcNAc(b1-3)Gal(b1-4)GlcNAc(b1-6)]Man(a1-6)[Gal(b1-4)GlcNAc(b1-3)Gal(b1-4)GlcNAc(b1-3)Gal(b1-4)GlcNAc(b1-3)Gal(b1-4)GlcNAc(b1-3)Gal(b1-4)GlcNAc(b1-2)Man(a1-3)]Man(b1-4)GlcNAc(b1-4)[Fuc(a1-6)]GlcNAc
# Summary of the method: as §1
# [12] = molecular target: Gal(b1-4)GlcNAc(b1-3)Gal(b1-4)GlcNAc(b1-3)Gal(b1-4)GlcNAc(b1-3)Gal(b1-4)GlcNAc(b1-3)Gal(b1-4)GlcNAc(b1-3)Gal(b1-4)GlcNAc(b1-2)Man(a1-3)[Gal(b1-4)GlcNAc(b1-3)Gal(b1-4)GlcNAc(b1-3)Gal(b1-4)GlcNAc(b1-3)Gal(b1-4)GlcNAc(b1-3)Gal(b1-4)GlcNAc(b1-3)Gal(b1-4)GlcNAc(b1-2)Man(a1-6)]Man(b1-4)GlcNAc(b1-4)GlcNAc
# Summary of the method: as §1
# [13] = molecular target: Gal(b1-4)GlcNAc(b1-3)Gal(b1-4)GlcNAc(b1-3)GalNAc
# Summary of the method: as §1
# [14] = molecular target: Gal(b1-4)GlcNAc(b1-3)Gal(b1-4)GlcNAc(b1-3)[Gal(b1-4)GlcNAc(b1-3)Gal(b1-4)GlcNAc(b1-6)]GalNAc
# Summary of the method: as §1
# [15] = molecular target: Gal(b1-4)GlcNAc(b1-3)Gal(b1-4)GlcNAc(b1-6)[Gal(b1-3)]GalNAc
# Summary of the method: as §1
# [16] = molecular target: Gal(b1-4)GlcNAc(b1-3)Gal(b1-4)[Fuc(a1-3)]GlcNAc(b1-3)Gal(b1-4)[Fuc(a1-3)]GlcNAc
# Summary of the method: as §1
# [17] = molecular target: Gal(b1-4)GlcNAc(b1-3)GalNAc
# Summary of the method: as §1
# [18] = molecular target: Gal(b1-4)GlcNAc(b1-3)[Fuc(a1-3)GlcNAc(b1-6)]Gal(b1-4)Glc
# Summary of the method: as §1
# [19] = molecular target: Gal(b1-4)GlcNAc(b1-3)[Gal(b1-4)GlcNAc(b1-6)]Gal(b1-4)GlcNAc
# Summary of the method: as §1
# [20] = molecular target: Gal(b1-4)GlcNAc(b1-3)[Gal(b1-4)GlcNAc(b1-6)]GalNAc
# Summary of the method: as §1
# [21] = molecular target: Gal(b1-4)GlcNAc(b1-3)[GlcNAc(b1-6)]Gal(b1-4)GlcNAc
# Summary of the method: as §1
# [22] = molecular target: Gal(b1-4)GlcNAc(b1-6)Gal(b1-4)GlcNAc
# Summary of the method: as §1
# [23] = molecular target: Gal(b1-4)GlcNAc(b1-6)GalNAc
# Summary of the method: as §1
binder,measurement,setting,value
B1,glycan array binding signal (z-score),[1],-0.02
same,glycan array binding signal (z-score),[2],0.339
same,glycan array binding signal (z-score),[3],0.029
same,glycan array binding signal (z-score),[4],-0.014
same,glycan array binding signal (z-score),[5],0.01
same,glycan array binding signal (z-score),[6],-0.037
same,glycan array binding signal (z-score),[7],-0.037
same,glycan array binding signal (z-score),[8],-0.023
same,glycan array binding signal (z-score),[9],-0.028
same,glycan array binding signal (z-score),[10],-0.01
same,glycan array binding signal (z-score),[11],-0.013
same,glycan array binding signal (z-score),[12],-0.093
same,glycan array binding signal (z-score),[13],-0.114
same,glycan array binding signal (z-score),[14],-0.059
same,glycan array binding signal (z-score),[15],-0.04
same,glycan array binding signal (z-score),[16],-0.048
same,glycan array binding signal (z-score),[17],-0.096
same,glycan array binding signal (z-score),[18],-0.088
same,glycan array binding signal (z-score),[19],-0.078
same,glycan array binding signal (z-score),[20],0.686
same,glycan array binding signal (z-score),[21],-0.064
same,glycan array binding signal (z-score),[22],-0.118
same,glycan array binding signal (z-score),[23],-0.134
